Among all 150,000 compounds or so, about 540 (0.36%) showed an effect of 50% or more. The list shows a part of the results.

In this test the test system is Plasmodium falciparum. Briefly: Primary screen in NF54 nanoGlo assay, in single point, at 2uM, 72h; a lower Z score goes with more inhibition. The following applies: timepoint 72 hour. Type of test: functional, Erythrocyte.
Regarding `CS(=O)(=O)CCCOc1ccc(N2CCCC2)cc1`, the “% Inhibition” value is listed as -10% and the Z score was determined as 1.48.
On the same counts, the results for `Cc1cc(N(C)C)ccc1NC(=O)C1CCN(c2ccc3nncn3n2)CC1` are -5% and 0.93.
Take `COCC[C@@](C)(C#N)NS(=O)(=O)c1cc(OC)ccc1OC`: the “% Inhibition” value is given as -19% and the Z score turned out to be 2.19.
In the case of `COc1ccccc1-c1noc(Cn2cnc3ccccc3c2=O)n1`, the “% Inhibition” value is given as -7% and the Z score amounted to 0.97.
As for `COc1ccc([C@H](c2oc3ccccc3c2NC(=O)c2ccccc2)N2CCCCC2)cc1`, the “% Inhibition” value was -8% and the Z score is reported as 1.24.
In the same order, the values of `CC(C)n1ncc(C(=O)N2CCCc3nc(C#N)ccc32)c1Cl` are -4% and 0.75.
`Cn1c(=O)c2ccccc2n(CC(=O)N2CCN(c3ccc(F)cc3)CC2)c1=O`: the “% Inhibition” value was 3% and the Z score is given as -0.47.
In the same order, the values of `O=C(Nc1ncc(Cc2ccc(F)cc2)s1)[C@@H]1COc2ccccc2O1` are -15% and 2.88.
In the case of `CCc1ccc(S(=O)(=O)Nc2cc(C)on2)s1`, the “% Inhibition” value was 0% and the Z score is listed as 0.02.
Turning to `COCCN(Cc1ccc(C)s1)C(=O)c1cc(-c2ccc(C)s2)n[nH]1`, the “% Inhibition” value was -3% and the Z score worked out at 0.58.
On the same counts, the results for `CCc1nc2c(s1)[C@@H](N(C)Cc1nnc(C3CC3)s1)CCC2` are -6% and 0.65.
For the compound `CNC(=O)[C@@H]1CCCCN1Cc1ccnc(C(C)C)n1`, the “% Inhibition” value is -7% and the Z score is 1.42.
Consider `CCC(C)C(NS(=O)(=O)c1c(C)noc1C)C(N)=O` (stereo unspecified), for which the “% Inhibition” value was -10% and the Z score came out at 1.21.
`COc1ccc(OCc2nc(C3CN(C(=O)c4sccc4C)C3)no2)cc1`: the “% Inhibition” value turned out to be 9% and the Z score is reported as -1.47.
`CC(C)(C)c1nc(Cn2ccc3ncncc3c2=O)no1`: the “% Inhibition” value is 22% and the Z score is -2.83.
Consider `CCn1c(CC2CCNCC2)nn(Cc2ccc(-n3cccn3)cc2)c1=O`, for which the “% Inhibition” value is -11% and the Z score is on record as 0.96.
On the same counts, the results for `NC(=O)c1cc2c(cc1/C=C/c1ccccc1)OCO2` are -17% and 2.33.
In the same order, the values of `Cc1cc(=O)n(CC(=O)N(CCc2ccccc2)CC2CCN(C)CC2)nc1C` are -7% and 1.28.
For the compound `O=C(Nc1c(F)cccc1F)c1cn(-c2ccc(F)cc2F)c(=O)c2ccccc12`, the “% Inhibition” value stood at 31% and the Z score is -3.66.
On the same counts, the results for `CC(C)Cc1noc(CN(C)c2nc(-c3ccccn3)nc3c2CCNC3)n1` are 1% and -0.24.
On the same counts, the results for `O=C(CC[C@@H]1NC(=O)NC1=O)NCc1ccsc1` are 2% and -0.4.
As to `CCCN(CCC)c1ncc(C(=O)Nc2ccc(OCC)cc2)c(N)n1`, the “% Inhibition” value amounted to 29% and the Z score is on record as -3.27.
On to `COc1ccc(-c2c(-c3ccc(OC)c(OC)c3)[nH]c3[nH]c(=O)[nH]c(=O)c23)cc1`, for which the “% Inhibition” value was -4% and the Z score is 0.4.
